Measured values taken from patent US9873709B2 (priority 2013, dated 2018).
pKi: −log10 of the molar value.

Each compound was assayed against isolated recombinant JAK1 kinase domain (Homo sapiens (Human), UniProt P23458). Conditions: read-out: JAK1 Ki.

Compound | pKi
O=C(N[C@H]1CN2CCC1CC2)c1ccc(Nc2nc3c(C4=CCN(C(=O)CCC(F)(F)F)CC4)cccn3n2)cc1 [Example 2-469, N-[(3R)-quinuclidin-3-yl]-4-[[8-[1-(4,4,4-trifluorobutanoyl)-3,6-dihydro-2H-pyridin-4-yl]-[1,2,4]triazolo[1,5-a]pyridin-2-yl]amino]benzamide] | 9.17

Same assay, conditions: read-out: JAK1 Ki; isolated recombinant JAK1 kinase domain, 25 μM ATP

Compound | pKi
O=C(CCC(F)(F)F)N1CC=C(c2cccn3nc(Nc4ccc(C(=O)N5CCCCC56CCNCC6)cc4)nc23)CC1 [Example 2-450, 1-[4-[2-[4-(1,9-diazaspiro[5.5]undecane-1-carbonyl)anilino]-[1,2,4]triazolo[1,5-a]pyridin-8-yl]-3,6-dihydro-2H-pyridin-1-yl]-4,4,4-trifluoro-butan-1-one] | 8.75
CN(C(=O)c1ccc(Nc2nc3c(C4=CCN(C(=O)CCC(F)(F)F)CC4)cccn3n2)cc1)C1CNC1 [Example 2-451] | 8.84
NCC12CC(CN1C(=O)c1ccc(Nc3nc4c(C5=CCN(C(=O)CCC(F)(F)F)CC5)cccn4n3)cc1)C2 [Example 2-452, 1-[4-[2-[4-[4-(aminomethyl)-3-azabicyclo[2.1.1]hexane-3-carbonyl]anilino]-[1,2,4]triazolo[1,5-a]pyridin-8-yl]-3,6-dihydro-2H-pyridin-1-yl]-4,4,4-trifluoro-butan-1-one] | 9.01
O=C(CCC(F)(F)F)N1CC=C(c2cccn3nc(Nc4ccc(C(=O)N5CCOC6CCNCC65)cc4)nc23)CC1 (centres unmarked) [Example 2-453, 1-[4-[2-[4-(2,3,4a,5,6,7,8,8a-octahydropyrido[4,3-b][1,4]oxazine-4-carbonyl)anilino]-[1,2,4]triazolo[1,5-a]pyridin-8-yl]-3,6-dihydro-2H-pyridin-1-yl]-4,4,4-trifluoro-butan-1one] | 8.91
CN1CCN(C(=O)c2ccc(Nc3nc4c(C5=CCN(C(=O)CCC(F)(F)F)CC5)cccn4n3)cc2)C(C(=O)N(C)C)C1 (centres unmarked) [Example 2-457, N,N,4-trimethyl-1-[4-[[8-[1-(4,4,4-trifluorobutanoyl)-3,6-dihydro-2H-pyridin-4-yl]-[1,2,4]triazolo[1,5-a]pyridin-2-yl]amino]benzoyl] piperazine-2-carboxamide] | 8.59
CN(Cc1ccc2ncccc2c1)C(=O)c1ccc(Nc2nc3c(C4=CCN(C(=O)CCC(F)(F)F)CC4)cccn3n2)cc1 [Example 2-460, N-methyl-N-(6-quinolylmethyl)-4-[[8-[1-(4,4,4-trifluorobutanoyl)-3,6-dihydro-2H-pyridin-4-yl]-[1,2,4]triazolo[1,5-a]pyridin-2-yl]amino]benzamide] | 9.03
CC1CCCN(C2CCN(C(=O)c3ccc(Nc4nc5c(C6=CCN(C(=O)CCC(F)(F)F)CC6)cccn5n4)cc3)CC2)C1 (centres unmarked) [Example 2-461, 4,4,4-trifluoro-1-[4-[2-[4-[4-(3-methyl-1-piperidyl)piperidine-1-carbonyl]anilino]-[1,2,4]triazolo[1,5-a]pyridin-8-yl]-3,6-dihydro-2H-pyridin-1-yl]butan-1-one] | 9.08
O=C(CCC(F)(F)F)N1CC=C(c2cccn3nc(Nc4ccc(C(=O)N5CCN(CCn6ccnc6)CC5)cc4)nc23)CC1 [Example 2-462, 4,4,4-trifluoro-1-[4-[2-[4-[4-(2-imidazol-1-ylethyl)piperazine-1-carbonyl]anilino]-[1,2,4]triazolo[1,5-a]pyridin-8-yl]-3,6-dihydro-2H-pyridin-1-yl]butan-1-one] | 9.06
CC(C)N1CCC(CN(C)C(=O)c2ccc(Nc3nc4c(C5=CCN(C(=O)CCC(F)(F)F)CC5)cccn4n3)cc2)C1 (centres unmarked) [Example 2-463, N-[(1-isopropylpyrrolidin-3-yl)methyl]-N-methyl-4-[[8-[1-(4,4,4-trifluorobutanoyl)-3,6-dihydro-2H-pyridin-4-yl]-[1,2,4]triazolo[1,5-a]pyridin-2-yl]amino]benzamide] | 8.94
Cc1cccc(C2CCN(C(=O)c3ccc(Nc4nc5c(C6=CCN(C(=O)CCC(F)(F)F)CC6)cccn5n4)cc3)CC2)n1 [Example 2-468, 4,4,4-trifluoro-1-[4-[2-[4-[4-(6-methyl-2-pyridyl)piperidine-1-carbonyl]anilino]-[1,2,4]triazolo[1,5-a]pyridin-8-yl]-3,6-dihydro-2H-pyridin-1-yl]butan-1-one] | 9.16
O=C(CCC(F)(F)F)N1CC=C(c2cccn3nc(Nc4ccc(C(=O)N5CCN(CCN6CCOCC6)CC5)cc4)nc23)CC1 [Example 2-474, 4,4,4-trifluoro-1-[4-[2-[4-[4-(2-morpholinoethyl)piperazine-1-carbonyl]anilino]-[1,2,4]triazolo[1,5-a]pyridin-8-yl]-3,6-dihydro-2H-pyridin-1-yl]butan-1-one] | 9.00
Cc1cccnc1CN(C)C(=O)c1ccc(Nc2nc3c(C4=CCN(C(=O)CCC(F)(F)F)CC4)cccn3n2)cc1 [Example 2-476, N-methyl-N-[(3-methyl-2-pyridyl)methyl]-4-[[8-[1-(4,4,4-trifluorobutanoyl)-3,6-dihydro-2H-pyridin-4-yl]-[1,2,4]triazolo[1,5-a]pyridin-2-yl]amino]benzamide] | 9.04

Next, values leading:

pKi | Compound
9.24 | O=C(N[C@H]1[C@@H]2CNC[C@@H]21)c1ccc(Nc2nc3c(C4=CCN(C(=O)CCC(F)(F)F)CC4)cccn3n2)cc1 [Example 2-454, N-[(1R,5S)-3-azabicyclo[3.1.0]hexan-6-yl]-4-[[8-[1-(4,4,4-trifluorobutanoyl)-3,6-dihydro-2H-pyridin-4-yl]-[1,2,4]triazolo[1,5-a]pyridin-2-yl]amino]benzamide]
8.91 | O=C(NCCN1CCCCC1)c1ccc(Nc2nc3c(C4=CCN(C(=O)CCC(F)(F)F)CC4)cccn3n2)cc1 [Example 2-455, N-[2-(1-piperidyl)ethyl]-4-[[8-[1-(4,4,4-trifluorobutanoyl)-3,6-dihydro-2H-pyridin-4-yl]-[1,2,4]triazolo[1,5-a]pyridin-2-yl]amino]benzamide]
9.04 | O=C(CCC(F)(F)F)N1CC=C(c2cccn3nc(Nc4ccc(C(=O)N5CCC(c6ccncc6)CC5)cc4)nc23)CC1 [Example 2-456, 4,4,4-trifluoro-1-[4-[2-[4-[4-(4-pyridyl)piperidine-1-carbonyl]anilino]-[1,2,4]triazolo[1,5-a]pyridin-8-yl]-3,6-dihydro-2H-pyridin-1-yl]butan-1-one]
9.21 | CN1CCC(NC(=O)c2ccc(Nc3nc4c(C5=CCN(C(=O)CCC(F)(F)F)CC5)cccn4n3)cc2)C1 (centres unmarked) [Example 2-459, N-(1-methylpyrrolidin-3-yl)-4-[[8-[1-(4,4,4-trifluorobutanoyl)-3,6-dihydro-2H-pyridin-4-yl]-[1,2,4]triazolo[1,5-a]pyridin-2-yl]amino]benzamide]
8.97 | CN(C)C1CCN(C(=O)c2ccc(Nc3nc4c(C5=CCN(C(=O)CCC(F)(F)F)CC5)cccn4n3)cc2)C1 (centres unmarked) [Example 2-464, 1-[4-[2-[4-[3-(dimethylamino)pyrrolidine-1-carbonyl]anilino]-[1,2,4]triazolo[1,5-a]pyridin-8-yl]-3,6-dihydro-2H-pyridin-1-yl]-4,4,4-trifluoro-butan-1-one]
9.28 | O=C(NCCN1CCOCC1)c1ccc(Nc2nc3c(C4=CCN(C(=O)CCC(F)(F)F)CC4)cccn3n2)cc1 [Example 2-465, N-(2-morpholinoethyl)-4-[[8-[1-(4,4,4-trifluorobutanoyl)-3,6-dihydro-2H-pyridin-4-yl]-[1,2,4]triazolo[1,5-a]pyridin-2-yl]amino]benzamide]
9.01 | O=C(NCCN1CCCC1)c1ccc(Nc2nc3c(C4=CCN(C(=O)CCC(F)(F)F)CC4)cccn3n2)cc1 [Example 2-466, N-(2-pyrrolidin-1-ylethyl)-4-[[8-[1-(4,4,4-trifluorobutanoyl)-3,6-dihydro-2H-pyridin-4-yl]-[1,2,4]triazolo[1,5-a]pyridin-2-yl]amino]benzamide]
8.79 | CN1CCC(CNC(=O)c2ccc(Nc3nc4c(C5=CCN(C(=O)CCC(F)(F)F)CC5)cccn4n3)cc2)CC1 [Example 2-467, N-[(1-methyl-4-piperidyl)methyl]-4-[[8-[1-(4,4,4-trifluorobutanoyl)-3,6-dihydro-2H-pyridin-4-yl]-[1,2,4]triazolo[1,5-a]pyridin-2-yl]amino]benzamide]
9.12 | CNC(=O)C1CN(C(=O)c2ccc(Nc3nc4c(C5=CCN(C(=O)CCC(F)(F)F)CC5)cccn4n3)cc2)CCN1CCc1ccccc1 (centres unmarked) [Example 2-470, N-methyl-1-(2-phenylethyl)-4-[4-[[8-[1-(4,4,4-trifluorobutanoyl)-3,6-dihydro-2H-pyridin-4-yl]-[1,2,4]triazolo[1,5-a]pyridin-2-yl]amino]benzoyl] piperazine-2-carboxamide]
8.74 | CN(Cc1ccccc1)C1CCCN(C(=O)c2ccc(Nc3nc4c(C5=CCN(C(=O)CCC(F)(F)F)CC5)cccn4n3)cc2)C1 (centres unmarked) [Example 2-472, 1-[4-[2-[4-[3-[benzyl(methyl)amino]piperidine-1-carbonyl]anilino]-[1,2,4]triazolo[1,5-a]pyridin-8-yl]-3,6-dihydro-2H-pyridin-1-yl]-4,4,4-trifluoro-butan-1-one]
8.58 | CN(C(=O)c1ccc(Nc2nc3c(C4=CCN(C(=O)CCC(F)(F)F)CC4)cccn3n2)cc1)C1CCN(Cc2ccccc2)C1 (centres unmarked) [Example 2-473, N-(1-benzylpyrrolidin-3-yl)-N-methyl-4-[[8-[1-(4,4,4-trifluorobutanoyl)-3,6-dihydro-2H-pyridin-4-yl]-[1,2,4]triazolo[1,5-a]pyridin-2-yl]amino]benzamide]
9.12 | CN1CCN(C(=O)C2CCN(C(=O)c3ccc(Nc4nc5c(C6=CCN(C(=O)CCC(F)(F)F)CC6)cccn5n4)cc3)CC2)CC1 [Example 2-475, 4,4,4-trifluoro-1-[4-[2-[4-[4-(4-methylpiperazine-1-carbonyl)piperidine-1-carbonyl]anilino]-[1,2,4]triazolo[1,5-a]pyridin-8-yl]-3,6-dihydro-2H-pyridin-1-yl]butan-1-one]
8.80 | CN(Cc1ccc2c(c1)CCCN2C)C(=O)c1ccc(Nc2nc3c(C4=CCN(C(=O)CCC(F)(F)F)CC4)cccn3n2)cc1 [Example 2-477, N-methyl-N-[(1-methyl-3,4-dihydro-2H-quinolin-6-yl)methyl]-4-[[8-[1-(4,4,4-trifluorobutanoyl)-3,6-dihydro-2H-pyridin-4-yl]-[1,2,4]triazolo[1,5-a]pyridin-2-yl]amino]benzamide]
